The values below come from publication PMC6919601, “Identification of Plasmodium dipeptidyl aminopeptidase allosteric inhibitors by high throughput screening” (PLoS ONE, 2019).

The campaign covered roughly 110,000 compounds. About 230 (0.21%) showed an effect of 50% or more. This is one part of the list.
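Also: 30 min substrate incubation versus DMSO and 10 µM JCP410 controls.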

Sequence of DPAP1 (Q8IIJ9 whole entry, looked up): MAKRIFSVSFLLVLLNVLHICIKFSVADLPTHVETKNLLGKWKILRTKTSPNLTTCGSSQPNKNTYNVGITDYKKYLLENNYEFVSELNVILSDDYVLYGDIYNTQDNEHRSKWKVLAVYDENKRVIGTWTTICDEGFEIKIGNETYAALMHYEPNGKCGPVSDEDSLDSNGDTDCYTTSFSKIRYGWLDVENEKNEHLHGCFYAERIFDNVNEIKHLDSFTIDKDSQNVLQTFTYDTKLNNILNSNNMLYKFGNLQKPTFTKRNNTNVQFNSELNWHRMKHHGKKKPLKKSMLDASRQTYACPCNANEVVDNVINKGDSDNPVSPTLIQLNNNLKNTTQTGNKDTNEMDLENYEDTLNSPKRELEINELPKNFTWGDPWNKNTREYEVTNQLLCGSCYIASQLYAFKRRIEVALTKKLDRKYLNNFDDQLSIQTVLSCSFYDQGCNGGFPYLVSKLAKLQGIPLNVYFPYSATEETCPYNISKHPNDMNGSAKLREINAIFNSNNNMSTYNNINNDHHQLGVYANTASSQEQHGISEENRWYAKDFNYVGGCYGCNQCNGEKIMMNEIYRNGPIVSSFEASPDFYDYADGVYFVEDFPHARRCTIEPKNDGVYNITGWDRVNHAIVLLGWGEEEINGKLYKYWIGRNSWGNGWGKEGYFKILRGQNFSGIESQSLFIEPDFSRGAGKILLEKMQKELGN

The assay concerns the target DPAP1 (Plasmodium falciparum, UniProt Q8IIJ9). Description: primary screen, percent inhibition; read by cleavage of a fluorogenic dipeptide substrate; higher = more effect of the substance. On the set-up: species or system P. falciparum D10 trophozoite lysates; single well.
With `Cc1cccc(OCC(=O)Nc2cc(Cl)ccc2C)c1`, the “% Inhibition @ 10 uM” value is -3.26%.
With `Cc1ccc(CN2CCCC(C(=O)N3CCCCCC3)C2)cc1` (stereo not shown) the figure was 0.565%; with `Cn1nnc2c(sc3nc(N4CCOCC4)c4c(c32)CCCC4)c1=O`, 3.47%; with `CN1CCCN(Cc2cc(Br)cs2)CC1`, -5.57%.
Consider `CCOC(=O)C1=C(C)N(c2ccc(OC)cc2)C(=O)/C1=C\c1ccco1`, for which the “% Inhibition @ 10 uM” value was -3.14%.
On to `CCn1c(CN2CCCCC2)nc2ccccc21`, for which the “% Inhibition @ 10 uM” value turned out to be 3.66%.
With `O=C(c1ccccc1)c1ccc(N2CCOCC2)c(F)c1`, the “% Inhibition @ 10 uM” value came to 3.44%.
With `Cc1ccc(CNC(=O)CNS(=O)(=O)c2ccc(Br)s2)cc1`, the “% Inhibition @ 10 uM” value is listed as 5.1%.
`COc1ccccc1C(=O)N1N=C(C)CC1(O)C(F)(F)F` (stereo not shown): the “% Inhibition @ 10 uM” value is reported as -13.3%.
Next, `O=C1NC(=S)S/C1=C\C=C\c1ccccc1`: -0.828%; `COc1ccccc1/C=C/CN1CCC(C)CC1`: -3.27%; `O=C(COc1ccc2ccccc2c1)Nc1ccccc1C(=O)Nc1ccccc1`: 4.3%.
`O=C(CC12CC3CC(CC(C3)C1)C2)NCC(=O)N1CCCC1`: the “% Inhibition @ 10 uM” value is on record as -2.46%.
Turning to `COc1ccc(-n2c(C)nc(=O)c(-c3ccccc3)c2C)cc1`, the “% Inhibition @ 10 uM” value was found to be 1.4%.
With `Oc1nc(SC/C=C/c2ccccc2)nc2ccccc12` the figure was 6.4%.
Next, `COc1ccc(CN2CCN(Cc3cccc4ccccc34)CC2)c(OC)c1`: 7.1%; `Cc1c(CNC(=O)c2nn3c(C(F)(F)F)cc(-c4cccs4)nc3c2Cl)cnn1C`: 5.66%; `Cc1cccc(-c2nc(CSCC(=O)N3CCC(Cc4ccccc4)CC3)c(C)o2)c1`: -1.05%.
Turning to `COc1cc(OC)cc(C(=O)Nc2cccc(NC(=O)c3cc(OC)cc(OC)c3)n2)c1`, the “% Inhibition @ 10 uM” value is on record as -2.32%.
Regarding `CCN(CC)CCNC(=O)C1c2ccccc2C(=O)N(C)C1c1cn(C)c2ccccc12` (stereo not shown), the “% Inhibition @ 10 uM” value is given as 4.63%.
With `CS(=O)(=O)N(CC(=O)N1CCCC1)Cc1ccccc1`, the “% Inhibition @ 10 uM” value is on record as -7.32%.
For the compound `Cc1ccccc1C(=O)Nc1ccc(C(C)C)cc1`, the “% Inhibition @ 10 uM” value was found to be 0.247%.
`CC(C)(C)c1ccc(C(=O)NC2(C(F)(F)F)C(=O)N(Cc3ccccc3)C3=C2C(=O)CCC3)cc1` (stereo not shown): the “% Inhibition @ 10 uM” value came out at 0.221%.
Consider `Cc1ccc(/C=C2\N=C(c3ccc(F)cc3)OC2=O)o1`, for which the “% Inhibition @ 10 uM” value was -0.617%.
As to `Fc1ccc(CN2CCN(c3ccc(Cl)cc3)CC2)c(F)c1`, the “% Inhibition @ 10 uM” value is reported as 0.708%.
With `C=CCNc1nc(Cl)nc(N(c2ccccc2)c2ccccc2)n1` the figure was 4.98%; with `Cc1ccc(-n2c(S)nnc2-c2cccs2)c(C)c1`, 0.193%.
Regarding `CC(=O)OC1CCC2(NC(=O)c3ccccc3)CSC1C2OC(C)=O` (stereo not shown), the “% Inhibition @ 10 uM” value is recorded as -0.216%.
With `CC(=O)Nc1sc2c(c1C(=O)O)CCc1ccccc1-2` the figure was 6.37%; with `CC1CCN(C2CC(=O)N(c3cc(Cl)cc(Cl)c3)C2=O)CC1` (stereo not shown), -4.82%; with `Cc1ccc(-c2[nH]nc3c2C(c2ccc(OCC(N)=O)cc2)C(C#N)=C(N)O3)cc1C` (stereo not shown), 1.43%.
Take `COc1ccc2[nH]c3c(=O)n(Cc4ccc(C(=O)NC5CC5)cc4)c(=S)[nH]c3c2c1`: the “% Inhibition @ 10 uM” value turned out to be 4.28%.
Regarding `COc1ccccc1C1=NOC(Cn2c(NCc3ccccc3)nc3c2c(=O)n(C)c(=O)n3C)C1` (stereo not shown), the “% Inhibition @ 10 uM” value is -1.72%.
Take `O=C(CN(c1ccc(F)cc1)S(=O)(=O)c1ccccc1)Nc1ccccc1Cl`: the “% Inhibition @ 10 uM” value was -8.78%.
In the case of `O=C(NCc1ccccc1)c1cc(-c2ccc(O)cc2)on1`, the “% Inhibition @ 10 uM” value was -1.96%.
In the case of `Cc1cccc(NC(=O)C2c3ccccc3C(=O)N(C)C2c2cccs2)n1` (stereo not shown), the “% Inhibition @ 10 uM” value is listed as -3.27%.
`Cc1cc(C)c2c3c1C1C=CCC1CN3C(C(=O)O)C1CC=CC21` (stereo not shown): the “% Inhibition @ 10 uM” value was 3.65%.
As to `CCCNC(=O)c1cc(-c2ccc(OC)c(OC)c2)nc2ccccc12`, the “% Inhibition @ 10 uM” value is reported as -5.14%.
With `CN(C)CCCN(C(=O)c1cc2ccccc2oc1=O)c1nc2ccc(F)cc2s1` the figure was 4.2%; with `CCOc1cc(/C=N/n2cnnc2)ccc1O`, 7.75%; with `Cc1cc(C)c2nc(N3CCCC(C(=O)NCCN4CCCCC4C)C3)sc2c1` (stereo not shown), 1.8%.
Turning to `O=C1C2C3C=CC(C3)C2C(=O)N1c1cccc2ccccc12` (stereo not shown), the “% Inhibition @ 10 uM” value is -5.07%.
`CC1CCCCN1CCCNc1nc2ccccc2c2nc(-c3cccnc3)nn12` (stereo not shown): the “% Inhibition @ 10 uM” value is -6.07%.
Next, `CC(CCc1ccco1)NC(=O)Nc1cn(C)c(=O)c2ccccc12` (stereo not shown): -4.33%.
Consider `N#CC1=C(SCC(=O)c2cc3ccccc3oc2=O)NC(=O)C(C#N)C12CCCC2` (stereo not shown), for which the “% Inhibition @ 10 uM” value is recorded as 31.6%.
Take `CCNC(=O)C1CCCN1S(=O)(=O)c1ccc(C)cc1` (stereo not shown): the “% Inhibition @ 10 uM” value is -1.11%.
Regarding `OC1CCN(CC(O)CC(O)(c2ccc(F)cc2)c2ccc(F)cc2)CC1` (stereo not shown), the “% Inhibition @ 10 uM” value is -7.06%.
With `N#Cc1cc2c(nc1SCc1cccnc1)CCCCC2`, the “% Inhibition @ 10 uM” value came out at 1.03%.
With `COc1ccc(CN2CCN(c3ccccn3)CC2)cc1` the figure was -1.77%; with `CCc1ccc(S(=O)(=O)NCc2ccccn2)cc1`, 4.1%.
With `C=CCOc1ccc(CNCc2ccccc2Cl)cc1OC`, the “% Inhibition @ 10 uM” value was -0.545%.
Next, `Cc1ccc(Cl)cc1/N=C1\SC(CC(=O)Nc2ccc(C(=O)O)cc2)C(=O)N1C` (stereo not shown): -1.17%.
